# PubChem BioAssay AID588855 (National Center for Advancing Translational Sciences (NCATS), 2011)
# Where “and” joins values, the source holds several entries; their conditions need not be identical. Equal entries are not always repeated. In all, about 410,000 compounds went through this assay and about 5,000 (1.2%) were called active. Inconclusive results, whose numbers are uncertain, are shown with a selection of clear calls. Calls follow the shape of the dose curve; as a rule, active = well fitted inhibition curve with a large enough effect; inconclusive = small, poorly fitted or top-dose-only effect; inactive = no such curve, though single readings can be large or run the other way. Potencies beside an inconclusive call are fits to weak or partial responses and may not hold up.
# Assay: qHTS for Inhibitors of TGF-b; also: nearly all actives have a fitted effect of over 65% in size
# Settings: HepG2 CAGA-GFP TGF-b/SMAD3 reporter, GFP fluorescence, 18 h, TGF-beta stimulated, 500 pg/mL final; series mostly up to 46.1 µM; activity, negative = inhibition: at the top concentration
# Excerpt: TGF-b is a main component in the TGF-b signaling pathway which plays diverse roles in cellular and development pathways. TGF-b is the mediated by the transcription factors Smads. Although the Smad-dependent pathway is the primary canonical TGF-b signaling node, TGF-b1 can also activate alternative signaling pathways, including those involving MAPK (ERK, JNK and p38). This interaction may mediate or enhance Smad-dependent responses, or can exert Smad-independent effects. The complexity of this signaling cascade allows the TGF-b superfamily to perform unique, overlapping or redundant functions. We believe that targeting the TGF-beta pathway at the Smad-transcription factor level may eliminate the consequences of disrupting the entire pathway and offer specificity without affecting other signaling pathways. Smad3 is the primary transducer of TGF-b's signals and Smad3 regulates many functions attributed to TGF-b signaling. We hypothesize that Smad3 inhibitors will selectively eliminate Smad3-specific TGF-beta signals without undesired off-target effects. We aim to identify Smad3-small molecule antagonists using a quantitative high throughput screening (qHTS) approach.
# A high-throughput assay was developed to screen the NIH Molecular Libraries Small Molecule Repository (MLSMR). This is a cell based assay, where TGF-b is tagged with GFP. A counterscreen is run that looks at cytotoxicity (please see summary AID).
# MH087449NIH Chemical Genomics Center [NCGC]
# NIH Molecular Libraries Probe Centers Network [MLPCN]
# Assay Submitter (PI): Sushil Rane, National Institute of […]
# Suspensions of trypsinized HEPG2 CAGA-GFP cells were dispensed into white, tissue culture-treated, solid 1536-well plates at 5uL/well (1000 cells/well final concentration) in DMEM medium supplemented with 1% FBS. Plates were incubated at 37 degrees C for 2 hours, after which 23 nL of compounds or DMSO were delivered to each well using a pin tool. One uL of recombinant TGF-beta in DMEM (1% FBS) was then dispensed (500 pg/mL final concentration), and plates were incubated at 37 degrees C for 18 hours. The plates were measured on an Acumen eX3 Explorer plate reader for GFP fluorescence (ex488/em500-530). GFP values were calculated by determining the mean GFP fluorescence of individual cells, and compiling these values for each well to determine a total well GFP signal. The %Activity was determined from the corrected fluorescence values. A titration of the known TGF-B inhibitor SB431542 was included to monitor plate performance, while unstimulated HEPG2 (-TGF-B) control wells were used to normalize %Activity of identified inhibitors; unstimulated wells corresponded to 100%Activity (full inhibition), while stimulated cell controls (+DMSO) were used to normalize 0%Activity (no inhibition).
# Concentration-response curves were fitted to the signals arising from the resulting fluorescence. The concentration-effect curves were then classified based on curve quality (r2), response magnitude and degree of measured activity, and compounds were subsequently categorized based on their curve class.
# Potency is read from the fitted curve at half-maximal effect; tags tell the direction and shape of the fitted curve.
SMILES,Potency,"activity, negative = inhibition"
C=CCc1c(C)nc(C)nc1N/N=C/c1ccc(N(C)C)cc1,"inconclusive: 3.16 µM [inhibitor, partial curve, poor fit]",
COc1ccc(N2C(=O)CS(=O)C(c3ccccc3)C2=O)cc1 (configuration not stated),"inconclusive: 14.1 µM [inhibitor, partial curve, poor fit]",
C[C@]12CC[C@@H](O)C[C@H]1CC[C@@H]1[C@@H]2CC[C@]2(C)C(=O)CC[C@@H]12,"inconclusive: 6.31 µM [inhibitor, single point]",
Fc1ccccc1CN1Cc2ccccc2-n2nncc2C1,,inactive: -1.18%
O=[N+]([O-])NC1=NCCN1Cc1ccc(Cl)nc1,,inactive: -0.239%
COC(=O)C1=C(C(=O)OC)SC2(S1)C(C(=O)OC)=C(C(=O)OC)Sc1c2ssc1=O,"inconclusive: 3.55 µM [inhibitor, partial curve, poor fit]",
CC1C(=O)OC2CCN3CC4OC4(COC(=O)C(C)(O)C1(C)O)C23 (configuration not stated),,inactive: -1.86%
COC(=O)c1cc(NC(=O)Cn2nc(-c3ccccc3)c3c(c2=O)CCCC3)cc(C(=O)OC)c1,"inconclusive: 2.51 µM [inhibitor, full curve, poor fit]",
C=C(COC(=O)CCC(=O)O)CC1CC(O)[C@]2(C)OC3CC4OC5C[C@]6(C)O[C@]7(C)CCC8OC9C[C@]%10(C)OC%11C(C)=CC(=O)OC%11CC%10OC9C[C@@H](C)C8OC7CC6O[C@]5(C)C/C=C\C4OC3CC2O1 (some centres not stated),,inactive: -5.97%
O=[N+]([O-])c1ccc(S(=O)(=O)NCC(c2ccco2)N2CCc3ccccc3C2)cc1 (configuration not stated),"inconclusive: 4.47 µM [inhibitor, single point]",
CC(C)CN1Cc2cc(-c3ccccc3)ccc2-n2nncc2C1,"inconclusive: 28.2 µM [inhibitor, partial curve, poor fit]",
CS(=O)(=O)c1ccc(C2=C(CNC(=O)c3nccs3)[C@H]3CC[C@@H](C2)N3CCOc2ccccc2)cc1,"inconclusive: 35.5 µM [inhibitor, partial curve, poor fit]",
CCN1CCN(C(=O)COc2cc(=O)n(CC)c3ccccc23)CC1,"inconclusive: 6.31 µM [inhibitor, single point]",
CCCCCCn1c(O)c(C=Nc2ccccc2N2CCOCC2)c(=O)[nH]c1=S,,inactive: -0.812%
COc1ccc(C2SCC(=O)Nc3c2c(C)nn3-c2ccccc2)cc1OC (configuration not stated),"inconclusive: 3.98 µM [inhibitor, partial curve, poor fit]",
O=C1NC(=O)N(Cc2ccccc2Cl)C(=O)/C1=C/c1cccs1,"inconclusive: 35.5 µM [inhibitor, single point]",
COC(COC(N)=O)C1=C(N2CC2)C(=O)C(C)=C(N2CC2)C1=O (configuration not stated),"inconclusive: 10 µM [inhibitor, partial curve, poor fit]",
Cc1ccc(CN2Cc3ccc(Br)cc3-n3nncc3C2)cc1,"inconclusive: 1 µM [inhibitor, full curve, poor fit]",
CCOC(=O)C1(c2ccccc2)CCN(CCC(=O)Nc2ccccc2OC)CC1,"inconclusive: 35.5 µM [inhibitor, single point]",
COc1ccc(/C=N\NC(=O)c2cccc(F)c2)cc1COc1ccccc1,"inconclusive: 3.16 µM [inhibitor, partial curve]",
COc1ccc([N+](=O)[O-])cc1N=Cc1c(O)n(CCc2ccccc2)c(=O)n(C(C)C)c1=O,"inconclusive: 0.355 µM [inhibitor, full curve]",

SMILES,Potency,"activity, negative = inhibition"
C=C1C(O)[C@@H]2O[C@]3(CC[C@H](/C=C/C(C)[C@@H]4CC(C)=CC5(O[C@H](C[C@@](C)(O)C(=O)O)CCC5O)O4)O3)CC[C@H]2O[C@@H]1C(O)CC(C)[C@H]1OC2(CCCCO2)CCC1C (some centres not stated),active: 0.0891 µM,
Brc1ccccc1CNCCc1ccc2c(c1)OCO2,,inactive: 18%
CN(C(=O)c1cccc(NC(=O)Cc2cccc([N+](=O)[O-])c2)c1)C1CCCCC1,active: 20 µM,
CC(=O)NCCc1c[nH]c2ccccc12,,inactive: 40.6%
O=P(Oc1ccccc1)(Oc1ccccc1)N1CCN(c2ccc(F)cc2)CC1,"inconclusive: 17.8 µM [inhibitor, single point]",
Nc1ccc(C2(c3ccc(N)cc3)CN3CCC2CC3)cc1,,inactive: -3.38%
Nc1ccc(CCN2CCN(c3cccc(C(F)(F)F)c3)CC2)cc1,,inactive: -20.3%
CCCNC(=O)N1[C@H]2CC[C@@H]1C(C(=O)OC)=C(c1c(C)noc1C)C2,"inconclusive: 35.5 µM [inhibitor, partial curve, poor fit]",
Cc1cccc(N2CCN(CCc3ccccc3)CC2)c1C,"inconclusive: 11.2 µM [inhibitor, partial curve, poor fit]",
N#CC(C#N)=NNc1ccc([N+](=O)[O-])cc1,"inconclusive: 2.24 µM [inhibitor, partial curve, poor fit]",
O=C1NC(=O)N(CCc2ccc(F)cc2)C(=O)/C1=C/C=C/c1ccccc1,"inconclusive: 12.6 µM [inhibitor, single point]",
CCSc1cc(C2C(C#N)=C(N)Oc3n[nH]c(C)c32)c(C)o1 (configuration not stated),"inconclusive: 20 µM [inhibitor, single point]",
O=C1NC(=O)N(Cc2ccc(F)cc2)C(=O)/C1=C\C=C\c1ccco1,"inconclusive: 15.8 µM [inhibitor, single point]",
FC(F)(F)c1cc(-c2ccccc2)nc(N2CCCCCC2)n1,"inconclusive: 1.26 µM [inhibitor, partial curve, poor fit]",
O=[N+]([O-])c1ccc(NCc2ccc(Cl)cc2)c2ccncc12,,inactive: -1.04%
CC(C)C[C@H]1C(=O)N2CCC[C@H]2[C@]2(O)O[C@](NC(=O)[C@@H]3C=C4c5cccc6[nH]c(Br)c(c56)CC4N(C)C3)(C(C)C)C(=O)N12 (some centres not stated),,inactive: -27.4%
CCCCc1ccc(NC2=NCCCS2)cc1,"inconclusive: 35.5 µM [inhibitor, single point]",
Brc1ccc2c(c1)C(OC1CN3CCC1CC3)c1ccccc1CS2 (configuration not stated),"inconclusive: 25.1 µM [inhibitor, single point]",
Cc1cc2c(C(C)C)c(O)c(O)c(C=O)c2c(O)c1-c1c(C)cc2c(C(C)C)c(O)c(O)c(C=O)c2c1O,active: 1.12 µM,
COc1ccc(OC)c(NC(=O)Cn2cc(C(=O)c3ccccc3F)c3ccccc32)c1,,inactive: -7.85%
COC(=O)C1=C(c2ccc(OCc3ccccc3)cc2)C[C@@H]2CC[C@H]1N2C(=O)NCc1ccc2c(c1)OCO2,"inconclusive: 10 µM [inhibitor, partial curve, poor fit]",

SMILES,Potency,"activity, negative = inhibition"
CCC1=Nc2cc(C(=O)N3CCC4(CC3)OCCO4)ccc2Sc2ccccc21,,inactive: -14.8%
c1ccc(-c2ccc(-c3n(-c4ccccn4)c4ccccc4[n+]3-c3ccccn3)cc2)cc1,active: 17.8 µM,
Oc1ccc(O)c2c1C1(Cl)C(Cl)=C(Cl)C2(Cl)C1(Cl)Cl,"inconclusive: 25.1 µM [inhibitor, single point]",
Cc1ccc(-n2c(/C=C/c3ccc(Br)s3)nc3ccccc3c2=O)cc1,"inconclusive: 5.62 µM [inhibitor, full curve]",
CCN(CCCl)c1cc(CN(C)C)cc(NC(=O)c2ccc(C(=O)Nc3cc(CN(C)C)cc(N(CC)CCCl)c3)cc2)c1,active: 3.98 µM,
CCCN(C(=O)c1cc2c(=O)oc3ccccc3c2s1)c1cccc(Cl)c1,"inconclusive: 35.5 µM [inhibitor, single point]",
CNCC(O)c1cccc(OC(=O)c2ccccc2C)c1 (configuration not stated),,inactive: 16.1%
CCOC(=O)c1c(C)[nH]c(C)c1S(=O)(=O)N1CCC(C(=O)N2CCN(c3cccc(Cl)c3)CC2)CC1,"inconclusive: 0.447 µM [inhibitor, partial curve, poor fit]",
O=C(CN1CCCC1=O)Nc1ccccc1,"inconclusive: 6.31 µM [inhibitor, single point]",
C=CCn1c(O)c(C(CC)=Nc2cc(OC)ccc2OC)c(=O)[nH]c1=O,"inconclusive: 0.501 µM [inhibitor, full curve, poor fit]",
COC(=O)C1=C(c2ccc(-c3ccccc3)c(F)c2)C[C@@H]2CC[C@H]1N2C(=O)NCC1CC1,"inconclusive: 17.8 µM [inhibitor, single point]",
COc1ccc2c(c1)CCc1c(C(=O)Nc3c(C)nn(Cc4ccccc4C)c3C)noc1-2,active: 12.6 µM,
O=c1c2ccccc2nc(/C=C/c2cccc3ccccc23)n1-c1ccccc1Cl,,inactive: -0.466%
CN1CC=C(/C=C/c2ccc(-c3ccccc3)cc2)CC1,"inconclusive: 35.5 µM [inhibitor, single point]",
COc1cc(OC)c(OC)cc1CN1CCN(C(=O)COc2ccc3ccccc3c2)CC1,,inactive: -6.55%
O=C(Nc1cccc2ccccc12)c1nn(C23CC4CC(CC(C4)C2)C3)cc1Br,"inconclusive: 0.562 µM [inhibitor, full curve, poor fit]",
COc1ccc(Cl)cc1NC(=O)CN1C(=O)CN=C(c2ccccc2)c2cc(Cl)ccc21,"inconclusive: 25.1 µM [inhibitor, single point]",
CC[n+]1c(-c2ccccc2)c2cc(N)ccc2c2ccc(N)cc21,"inconclusive: 11.2 µM [inhibitor, single point] and inconclusive: 7.08 µM [inhibitor, partial curve, poor fit]",
O=C1NC(=O)N(Cc2ccco2)C(=O)/C1=C/C=C/c1ccco1,active: 7.08 µM,
CC(C)c1ccc(C(O)P(=O)(OCc2ccccc2)c2ccc(N(C)C)cc2)cc1 (configuration not stated),"inconclusive: 0.562 µM [inhibitor, full curve, poor fit]",
